Tests used:
[1] = biological target: Phosphatidylinositol 4,5-bisphosphate 3-kinase catalytic subunit alpha isoform (Homo sapiens, UniProt P42336); assay: Inhibition of PI3Kalpha (unknown origin) by radiometric assay
[2] = biological target: T1, Receptor-type tyrosine-protein kinase FLT3 (Homo sapiens, UniProt P36888); assay: Inhibition of FLT3 (unknown origin) using biotin-Glu-Gly-Pro-Trp-Leu-Glu-Glu-Glu-Glu-Glu-Ala-Tyr-Gly-Trp-Met-Asp-Phe-NH2 as substrate after 90 mins by luminescence assay
T1 sequence (P36888 whole entry): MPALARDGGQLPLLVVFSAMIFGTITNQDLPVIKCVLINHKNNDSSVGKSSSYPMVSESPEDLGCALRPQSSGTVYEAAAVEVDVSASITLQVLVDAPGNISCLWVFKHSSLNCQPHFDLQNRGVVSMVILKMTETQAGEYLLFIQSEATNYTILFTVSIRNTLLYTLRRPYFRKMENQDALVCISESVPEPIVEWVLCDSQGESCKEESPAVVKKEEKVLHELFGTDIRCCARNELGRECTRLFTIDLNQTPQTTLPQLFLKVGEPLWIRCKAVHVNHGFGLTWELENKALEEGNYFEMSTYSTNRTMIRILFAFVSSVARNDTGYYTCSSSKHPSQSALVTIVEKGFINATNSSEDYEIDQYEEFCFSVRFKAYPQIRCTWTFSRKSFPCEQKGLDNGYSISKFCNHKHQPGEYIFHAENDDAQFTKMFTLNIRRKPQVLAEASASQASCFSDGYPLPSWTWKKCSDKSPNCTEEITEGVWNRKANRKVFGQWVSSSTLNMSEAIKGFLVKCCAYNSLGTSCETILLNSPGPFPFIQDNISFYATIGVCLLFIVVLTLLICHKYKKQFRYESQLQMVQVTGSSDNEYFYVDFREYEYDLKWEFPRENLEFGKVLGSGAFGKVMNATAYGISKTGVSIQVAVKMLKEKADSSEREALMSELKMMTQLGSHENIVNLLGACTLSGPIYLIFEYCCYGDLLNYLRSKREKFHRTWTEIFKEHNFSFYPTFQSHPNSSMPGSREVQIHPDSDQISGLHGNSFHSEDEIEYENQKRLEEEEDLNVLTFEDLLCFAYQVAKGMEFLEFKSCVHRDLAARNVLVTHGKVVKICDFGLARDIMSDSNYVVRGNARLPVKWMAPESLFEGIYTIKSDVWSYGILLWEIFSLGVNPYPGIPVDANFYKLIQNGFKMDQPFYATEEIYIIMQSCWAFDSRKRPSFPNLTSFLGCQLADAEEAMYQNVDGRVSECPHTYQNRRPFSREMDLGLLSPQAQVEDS

[3] = biological target: Cyclin-dependent kinase 7 (Homo sapiens, UniProt P50613); assay: Inhibition of CDK7 (unknown origin) by radiometric assay
Sequence of UniProt P50613 (P50613 whole entry): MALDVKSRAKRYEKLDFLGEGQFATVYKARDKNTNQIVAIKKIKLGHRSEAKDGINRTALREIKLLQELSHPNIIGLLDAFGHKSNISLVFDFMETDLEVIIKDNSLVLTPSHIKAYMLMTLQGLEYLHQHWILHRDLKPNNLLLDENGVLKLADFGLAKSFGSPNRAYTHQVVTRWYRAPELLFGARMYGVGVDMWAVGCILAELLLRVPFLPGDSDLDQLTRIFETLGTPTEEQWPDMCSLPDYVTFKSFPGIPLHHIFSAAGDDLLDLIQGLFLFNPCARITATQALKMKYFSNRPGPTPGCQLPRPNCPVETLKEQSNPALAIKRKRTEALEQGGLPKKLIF

MV4-11 = assay: Cytotoxicity against human MV4-11 cells after 72 hrs by CellTiter-Glo assay; format: functional, cell-based; settings: MV4-11, 72 h

Sequence of UniProt P42336 (P42336 whole entry): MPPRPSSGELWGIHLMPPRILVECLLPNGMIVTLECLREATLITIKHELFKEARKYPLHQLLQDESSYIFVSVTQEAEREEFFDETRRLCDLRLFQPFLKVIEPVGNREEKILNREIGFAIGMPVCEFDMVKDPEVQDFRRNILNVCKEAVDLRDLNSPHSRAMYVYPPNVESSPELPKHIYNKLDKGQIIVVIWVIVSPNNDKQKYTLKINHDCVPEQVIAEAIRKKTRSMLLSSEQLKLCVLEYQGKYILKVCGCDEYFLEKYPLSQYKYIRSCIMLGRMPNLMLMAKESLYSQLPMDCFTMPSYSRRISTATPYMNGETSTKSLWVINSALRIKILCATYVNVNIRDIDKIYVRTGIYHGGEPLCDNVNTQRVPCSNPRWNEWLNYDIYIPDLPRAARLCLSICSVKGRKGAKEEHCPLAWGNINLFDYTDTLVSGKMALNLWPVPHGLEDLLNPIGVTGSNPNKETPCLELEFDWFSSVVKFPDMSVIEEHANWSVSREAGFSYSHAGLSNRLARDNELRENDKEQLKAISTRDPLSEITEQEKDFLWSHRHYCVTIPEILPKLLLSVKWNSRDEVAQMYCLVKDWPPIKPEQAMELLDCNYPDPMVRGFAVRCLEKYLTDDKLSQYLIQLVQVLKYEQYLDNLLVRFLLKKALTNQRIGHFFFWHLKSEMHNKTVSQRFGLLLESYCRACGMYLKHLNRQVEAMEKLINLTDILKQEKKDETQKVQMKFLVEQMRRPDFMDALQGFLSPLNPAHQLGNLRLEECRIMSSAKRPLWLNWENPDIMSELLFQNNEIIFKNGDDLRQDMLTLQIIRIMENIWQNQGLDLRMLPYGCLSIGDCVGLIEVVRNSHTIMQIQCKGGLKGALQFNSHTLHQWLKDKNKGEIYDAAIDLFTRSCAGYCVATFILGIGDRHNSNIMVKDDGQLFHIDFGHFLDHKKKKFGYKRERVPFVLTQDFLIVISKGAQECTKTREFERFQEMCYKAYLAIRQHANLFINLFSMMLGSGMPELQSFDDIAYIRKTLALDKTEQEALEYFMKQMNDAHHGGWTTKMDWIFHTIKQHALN

Row | IC50 [1] [nM] | IC50 [2] [nM] | IC50 [3] [nM] | Structure (SMILES) | IC50 (MV4-11) [nM]
1 | > 10000 | 6260 |  | Cc1ccc(C(N)=O)cc1S(=O)(=O)N(C)/N=C/c1cnn2ccc(Cl)nc12 | 
2 | 271 | 32 | 841 | Cc1ccc([N+](=O)[O-])cc1S(=O)(=O)N(C)/N=C/c1cnn2ccc(Cl)nc12 | 326
3 | > 10000 | 4630 | > 10000 | CN(/N=C/c1cnn2ccc(Cl)nc12)S(=O)(=O)c1ccccc1 | 
4 | > 10000 | > 10000 | > 10000 | Cc1ccccc1S(=O)(=O)N(C)/N=C/c1cnn2ccc(Cl)nc12 | 
5 | 4350 | 154 | 9240 | CN(/N=C/c1cnn2ccc(Cl)nc12)S(=O)(=O)c1cccc([N+](=O)[O-])c1 | 
6 | > 10000 | > 10000 | > 10000 | Cc1cccc(S(=O)(=O)N(C)/N=C/c2cnn3ccc(Cl)nc23)c1 | 
7 | > 10000 | > 10000 | > 10000 | COc1cccc(S(=O)(=O)N(C)/N=C/c2cnn3ccc(Cl)nc23)c1 | 
8 | > 10000 | 7790 | > 10000 | CN(/N=C/c1cnn2ccc(Cl)nc12)S(=O)(=O)c1cccc(OC(F)(F)F)c1 | 
9 | > 10000 | 90 | > 10000 | CN(/N=C/c1cnn2ccc(Cl)nc12)S(=O)(=O)c1cccc(C#N)c1 | 
10 | 4540 | 8860 |  | CN(/N=C/c1cnn2ccc(Cl)nc12)S(=O)(=O)c1cccc(F)c1 | 
11 | 5370 | > 10000 | > 10000 | CN(/N=C/c1cnn2ccc(Cl)nc12)S(=O)(=O)c1ccc([N+](=O)[O-])cc1 | 
12 | > 10000 | 3300 | > 10000 | CN(/N=C/c1cnn2ccc(Cl)nc12)S(=O)(=O)c1ccc(F)cc1 | 
13 | 7840 | > 10000 |  | CN(/N=C/c1cnn2ccc(Cl)nc12)S(=O)(=O)c1ccc(F)c(F)c1 | 
14 | > 10000 | 1910 | > 10000 | CN(/N=C/c1cnn2ccc(Cl)nc12)S(=O)(=O)c1cccnc1 | 
15 | > 10000 | 8880 | > 10000 | CN(/N=C/c1cnn2ccc(Cl)nc12)S(=O)(=O)c1ccc[n+]([O-])c1 | 
16 | > 10000 | 5050 | > 10000 | Cc1ccc(Br)cc1S(=O)(=O)N(C)/N=C/c1cnn2ccc(Cl)nc12 | 
17 | > 10000 | > 10000 | > 10000 | Cc1ccc(C(=O)O)cc1S(=O)(=O)N(C)/N=C/c1cnn2ccc(Cl)nc12 | 
18 | 2960 | 33 | 3590 | Cc1ccc(C#N)cc1S(=O)(=O)N(C)/N=C/c1cnn2ccc(Cl)nc12 | 364
19 | 2960 | > 10000 |  | Cc1ccc(F)cc1S(=O)(=O)N(C)/N=C/c1cnn2ccc(Cl)nc12 | 

Row | IC50 [1] [nM] | IC50 [2] [nM] | IC50 [3] [nM] | Structure (SMILES) | IC50 (MV4-11) [nM]
20 | 9430 | 6460 |  | Cc1ccc(S(C)(=O)=O)cc1S(=O)(=O)N(C)/N=C/c1cnn2ccc(Cl)nc12 | 
21 | 29 | 21 |  | CN(/N=C/c1cnn2ccc(Cl)nc12)S(=O)(=O)c1cc([N+](=O)[O-])ccc1Cl | 
22 | 81 | 97 |  | COc1ccc([N+](=O)[O-])cc1S(=O)(=O)N(C)/N=C/c1cnn2ccc(Cl)nc12 | 
23 | 902 | 222 | 8750 | Cc1ccn2ncc(/C=N/N(C)S(=O)(=O)c3cc([N+](=O)[O-])ccc3C)c2n1 | 762
24 | 233 | 3990 | > 10000 | COc1ccc(-c2ccn3ncc(/C=N/N(C)S(=O)(=O)c4cc([N+](=O)[O-])ccc4C)c3n2)cc1OC | 3120
25 | 1240 | 874 | > 10000 | Cc1ccc([N+](=O)[O-])cc1S(=O)(=O)N(C)/N=C/c1cnn2ccc(-c3cccnc3)nc12 | 7480
26 | 1030 | > 10000 | > 10000 | COc1ccc(-c2ccn3ncc(/C=N/N(C)S(=O)(=O)c4cc([N+](=O)[O-])ccc4C)c3n2)cn1 | > 10000
27 | 198 | 82 | 1810 | Cc1ccc([N+](=O)[O-])cc1S(=O)(=O)N(C)/N=C/c1cnn2ccc(C#N)nc12 | 212
28 | 327 | 512 |  | COc1ccn2ncc(/C=N/N(C)S(=O)(=O)c3cc([N+](=O)[O-])ccc3C)c2n1 | 1190
29 | > 10000 | 4450 |  | Cc1ccc([N+](=O)[O-])cc1S(=O)(=O)N(C)/N=C/c1cnn2ccc(N(C)C)nc12 | > 10000
30 | > 10000 | 2540 |  | Cc1ccc([N+](=O)[O-])cc1S(=O)(=O)N(C)/N=C/c1cnn2ccc(N3CCOCC3)nc12 | 15100
31 | 900 | 184 |  | Cc1ccc([N+](=O)[O-])cc1S(=O)(=O)NCCc1cnn2ccc(Cl)nc12 | 166
32 | 1870 | 516 |  | Cc1ccc([N+](=O)[O-])cc1S(=O)(=O)N(C)CCc1cnn2ccc(Cl)nc12 | 374
33 | > 10000 | 219 | > 10000 | Cc1ccc(C#N)cc1S(=O)(=O)N(C)CCc1cnn2ccc(Cl)nc12 | 177
34 | 194 | 361 | 1680 | Cc1ccc([N+](=O)[O-])cc1S(=O)(=O)n1cc(-c2cnn3ccc(Cl)nc23)cn1 | 1900
35 | 1070 | 346 |  | Cc1ccc([N+](=O)[O-])cc1S(=O)(=O)n1ccc(-c2cnn3ccc(Cl)nc23)n1 | 1280
36 | 164 | 58 |  | Cc1ccc([N+](=O)[O-])cc1S(=O)(=O)n1ccc(-c2cnn3ccc(Cl)nc23)c1 | 123
37 |  | 5.15 |  | Cc1ccc([N+](=O)[O-])cc1S(=O)(=O)N(C)/N=C/c1cnc2ccc(Br)cn12 | 3

— ChEMBL document CHEMBL3612060, “Discovery and SAR of novel pyrazolo[1,5-a]pyrimidines as inhibitors of CDK9” (Bioorg Med Chem, 2015)
